Source: the supplement of paper PMC3334620
Over roughly 33,000 sequences, “E-score (-0.5 to 0.5)” has its median near -0.035; the highest 2% begin near 0.35. This is one part of the list.

target: T1, Pdr3 (UniProt P33200); assay: PBM E-score (8-mer binding enrichment) (E-score (-0.5 to 0.5)); higher = stronger / more preferred TF binding; most listed sequences are background and not binding sites; settings: protein concentration: 200 nM; construct: GST-full length
T1 sequence: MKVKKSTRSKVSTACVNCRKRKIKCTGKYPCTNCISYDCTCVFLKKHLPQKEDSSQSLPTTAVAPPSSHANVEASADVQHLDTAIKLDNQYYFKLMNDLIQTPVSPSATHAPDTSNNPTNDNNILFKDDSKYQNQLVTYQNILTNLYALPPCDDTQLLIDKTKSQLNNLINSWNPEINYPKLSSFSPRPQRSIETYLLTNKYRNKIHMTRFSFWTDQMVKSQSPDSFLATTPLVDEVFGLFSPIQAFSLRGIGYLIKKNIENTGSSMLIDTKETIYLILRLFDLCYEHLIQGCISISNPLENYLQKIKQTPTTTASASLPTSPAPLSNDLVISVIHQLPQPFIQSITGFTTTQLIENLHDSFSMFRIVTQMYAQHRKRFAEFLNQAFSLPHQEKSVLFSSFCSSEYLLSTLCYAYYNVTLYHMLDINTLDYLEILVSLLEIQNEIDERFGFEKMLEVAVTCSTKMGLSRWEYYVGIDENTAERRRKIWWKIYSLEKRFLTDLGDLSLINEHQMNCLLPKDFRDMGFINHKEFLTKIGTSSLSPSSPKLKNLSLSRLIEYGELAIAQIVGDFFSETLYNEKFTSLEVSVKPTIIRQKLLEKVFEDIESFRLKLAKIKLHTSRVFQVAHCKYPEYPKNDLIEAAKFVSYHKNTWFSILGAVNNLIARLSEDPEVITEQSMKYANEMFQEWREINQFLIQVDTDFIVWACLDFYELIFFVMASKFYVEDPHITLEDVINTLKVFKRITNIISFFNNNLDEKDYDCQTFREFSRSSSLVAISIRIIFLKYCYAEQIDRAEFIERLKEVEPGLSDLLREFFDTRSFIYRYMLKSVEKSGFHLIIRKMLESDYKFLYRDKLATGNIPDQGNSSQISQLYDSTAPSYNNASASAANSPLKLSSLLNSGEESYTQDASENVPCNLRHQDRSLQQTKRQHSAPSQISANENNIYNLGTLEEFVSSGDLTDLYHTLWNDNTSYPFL
Procedure: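 Universal 'all 10-mer' protein binding microarrays (Agilent AMADID 015681) probed with GST-tagged S. cerevisiae TFs (full-length or DBD) made by in vitro transcription/translation (PURExpress), about 100-200 nM. Bound TF was detected with fluorescent anti-GST. Each ungapped 8-mer (which stands for itself and its reverse complement) is scored by the PBM enrichment score (E-score), a modified Wilcoxon-Mann-Whitney statistic from -0.5 to +0.5, computed with the Universal PBM Analysis Suite. Scale: above 0.35 generally sequence-specific binding.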

In order of rising “PBM E-score” value:
1. CTCCTTCA  -0.346
2. ACCTACAC  -0.32
3. ACAGGGCT  -0.316
4. CCAGCTAA  -0.313
5. GAGTCGCA  -0.306
6. GTCTGGGA  -0.301
7. CTAATAAG  -0.267
8. ACGTAGCC  -0.265
9. GGCTGTCA  -0.256
10. AGGTTGAC  -0.239
11. CTAGGCTA  -0.236
12. AAGGCATG  -0.23
13. ATTTAAGA  -0.224
14. GTCAAACA  -0.223
15. CCCTTGGC  -0.22
16. CAGGTGAG  -0.214
17. AGTCATTG  -0.209
18. AAAAGCTG  -0.207
19. CACATGAC  -0.204
20. GCAAGTGA  -0.199
21. GCTGTTCA  -0.199
22. ATAGTGAA  -0.197
23. ATCCTCAT  -0.195
24. ATGTCTTA  -0.187
25. GGCACTAC  -0.186
26. TAGGACAA  -0.185
27. CGCTCTAG  -0.177
28. CAACACAG  -0.176
29. AGGTTACA  -0.166
30. AGCGGTGC  -0.166
31. GTCTATCA  -0.161
32. CCAACGTC  -0.16
33. GCCACCTA  -0.158
34. ACAGGGAG  -0.156
35. ATTAGCCA  -0.153
36. AATCGTAT  -0.153
37. AAACCTGT  -0.149
38. AGGGATAT  -0.148
39. ACTCTCAT  -0.148
40. AAGGATTA  -0.145
41. ATACCTTA  -0.144
42. GTAATGCA  -0.142
43. CTACGTCC  -0.141
44. GTAAGGAA  -0.141
45. CAAGTACA  -0.14
46. AGGTGTAG  -0.136
47. GGCAATGA  -0.134
48. CTCAATTA  -0.13
49. CACGCTGG  -0.129
50. GGCGTTGA  -0.128
51. CTCATGAA  -0.123
52. ACCCTCCA  -0.122
53. ACGCCAAC  -0.121
54. AAATAGAA  -0.118
55. GTAGCATA  -0.118
56. GGGCTTAC  -0.116
57. CAGGGGCA  -0.113
58. TAAGGCAA  -0.112
59. AGTGCAGG  -0.111
60. CAGGACGA  -0.11
61. GTGATGAA  -0.106
62. AGGCGTAA  -0.105
63. AACTGGGC  -0.102
64. GTACATTA  -0.102
65. CCTTCTCC  -0.102
66. GGTACTGA  -0.0986
67. AACTTGCG  -0.0982
68. AACGCGTA  -0.0973
69. ACTAGCAT  -0.0947
70. CTATCCCC  -0.0941
71. CATGTGCC  -0.0931
72. ATCAGACA  -0.0927
73. GCGTAACA  -0.0848
74. CTAGTTAC  -0.0807
75. GGGTAACC  -0.0796
76. TTAAAAAA  -0.0789
77. AATTCACG  -0.0755
78. CATGGGCA  -0.0731
79. CGCGTTTC  -0.0712
80. GTGCAGCA  -0.0699
81. AGCAACCG  -0.0638
82. ACCTTGCC  -0.0637
83. CACACTAC  -0.0605
84. CATGCAGA  -0.0568
85. CCAGAGTC  -0.0528
86. ACAAACAT  -0.0528
87. GAATACAC  -0.0519
88. AAGTCGGT  -0.0517
89. CGTAATAC  -0.0503
90. GTTCGTTA  -0.0499
91. ACCTGCAT  -0.0498
92. GAGTCGCC  -0.0489
93. AAACTGCA  -0.0386
94. TGCTGGAA  -0.0333
95. ACCTCGAA  -0.0326
96. AACGAAGC  -0.0271
97. TCAGGCCA  -0.0251
98. AACGGGCT  -0.0242
99. GCGCTAAA  -0.0228
100. GTACCCCA  -0.0176
101. CCCCTCAA  -0.0149
102. ACGAGAAT  -0.0143
103. AGGTTCCC  -0.0087
104. CCAAGTGC  -0.00795
105. CGCACTAG  -0.00713
106. AGTTTGTG  -0.0043
107. AGAACACG  -0.00391
108. TCCCAAGA  0.00106
109. AAGGTGTG  0.00561
110. ACATATTC  0.0102
111. ACAGAATA  0.0104
112. AATTGACC  0.0106
113. AATTTGCA  0.0143
114. ACATGATA  0.0144
115. GACATGGC  0.0156
116. GTAACGCA  0.0163
117. AGTGTTAG  0.0165
118. ATAAACAA  0.0179
119. GATATTAC  0.0213
120. AATCCAAA  0.0228
121. ATTCAGTA  0.0302
122. CATCAGGG  0.0403
123. AAAGTTTC  0.0419
124. CTGACTTC  0.0429
125. AATAATGT  0.0445
126. GGTGATTA  0.0475
127. ACATTACC  0.0491
128. GAGTACAA  0.0562
129. GACCGGCA  0.0622
130. ACACGGGT  0.0643
131. AAATATTC  0.0659
132. ACACGCCC  0.0693
133. AGGCAGTC  0.0698
134. CCATGTAA  0.075
135. AATTTAAC  0.0759
136. GGCCCCAC  0.0764
137. CCCATGGC  0.0769
138. CCGAACTC  0.077
139. CAGTATTA  0.0864
140. CCCGAGCA  0.0918
141. CGAGTAAA  0.103
142. ATTATTCG  0.104
143. AGCGGCAC  0.118
144. AGATACCA  0.129
145. ACAGGAAA  0.142
146. GTTACTGA  0.153
147. CCGATCCA  0.155
148. GTCCCGTA  0.159
149. CCGCTGGA  0.162
150. CGGTTGAG  0.169
151. CGATTTAG  0.174
152. ACCCCGTG  0.181
153. CATACCCG  0.188
154. CGACACGA  0.197
155. ATGTGCGG  0.199
156. CGCATACC  0.219
157. CGAGCGAG  0.23
158. CCCGTGGC  0.233
159. CCGGGGAC  0.234
160. AATCGGCC  0.242
161. CCACGGCA  0.262
162. CCGTATCC  0.266
163. GGTCCGCA  0.28
164. GGAATCAA  0.286
165. CAGACGGA  0.3
166. GGCCGAGA  0.31
167. ACTATTCC  0.327
168. CGGACAAC  0.33
169. ATCCACGG  0.353
170. GACCCGGA  0.369
171. AGCGGAAA  0.391
172. CGAACGGA  0.407
